Experimental data published in PubChem BioAssay AID2528 (National Center for Advancing Translational Sciences (NCATS), 2010).
“And” between values parts separate entries of the source, which are not always exact repeats. Equal values may be shown once. Out of some 350,000 compounds screened, about 700 (0.2%) were called active. The call rests on the fitted dose curve; in most records, active means well fitted inhibition curve with a large enough effect; inconclusive means small, poorly fitted or top-dose-only effect; inactive means flat fitted curve, though single readings scatter. This is a selection; strong and weak results do not stand in their true shares. Some structures have more than one record in an assay (separate samples or runs), and their calls can disagree.

Biological target: RecQ-like DNA helicase BLM (Homo sapiens) (UniProt P54132)
Sequence of UniProt P54132 (P54132 whole entry, looked up): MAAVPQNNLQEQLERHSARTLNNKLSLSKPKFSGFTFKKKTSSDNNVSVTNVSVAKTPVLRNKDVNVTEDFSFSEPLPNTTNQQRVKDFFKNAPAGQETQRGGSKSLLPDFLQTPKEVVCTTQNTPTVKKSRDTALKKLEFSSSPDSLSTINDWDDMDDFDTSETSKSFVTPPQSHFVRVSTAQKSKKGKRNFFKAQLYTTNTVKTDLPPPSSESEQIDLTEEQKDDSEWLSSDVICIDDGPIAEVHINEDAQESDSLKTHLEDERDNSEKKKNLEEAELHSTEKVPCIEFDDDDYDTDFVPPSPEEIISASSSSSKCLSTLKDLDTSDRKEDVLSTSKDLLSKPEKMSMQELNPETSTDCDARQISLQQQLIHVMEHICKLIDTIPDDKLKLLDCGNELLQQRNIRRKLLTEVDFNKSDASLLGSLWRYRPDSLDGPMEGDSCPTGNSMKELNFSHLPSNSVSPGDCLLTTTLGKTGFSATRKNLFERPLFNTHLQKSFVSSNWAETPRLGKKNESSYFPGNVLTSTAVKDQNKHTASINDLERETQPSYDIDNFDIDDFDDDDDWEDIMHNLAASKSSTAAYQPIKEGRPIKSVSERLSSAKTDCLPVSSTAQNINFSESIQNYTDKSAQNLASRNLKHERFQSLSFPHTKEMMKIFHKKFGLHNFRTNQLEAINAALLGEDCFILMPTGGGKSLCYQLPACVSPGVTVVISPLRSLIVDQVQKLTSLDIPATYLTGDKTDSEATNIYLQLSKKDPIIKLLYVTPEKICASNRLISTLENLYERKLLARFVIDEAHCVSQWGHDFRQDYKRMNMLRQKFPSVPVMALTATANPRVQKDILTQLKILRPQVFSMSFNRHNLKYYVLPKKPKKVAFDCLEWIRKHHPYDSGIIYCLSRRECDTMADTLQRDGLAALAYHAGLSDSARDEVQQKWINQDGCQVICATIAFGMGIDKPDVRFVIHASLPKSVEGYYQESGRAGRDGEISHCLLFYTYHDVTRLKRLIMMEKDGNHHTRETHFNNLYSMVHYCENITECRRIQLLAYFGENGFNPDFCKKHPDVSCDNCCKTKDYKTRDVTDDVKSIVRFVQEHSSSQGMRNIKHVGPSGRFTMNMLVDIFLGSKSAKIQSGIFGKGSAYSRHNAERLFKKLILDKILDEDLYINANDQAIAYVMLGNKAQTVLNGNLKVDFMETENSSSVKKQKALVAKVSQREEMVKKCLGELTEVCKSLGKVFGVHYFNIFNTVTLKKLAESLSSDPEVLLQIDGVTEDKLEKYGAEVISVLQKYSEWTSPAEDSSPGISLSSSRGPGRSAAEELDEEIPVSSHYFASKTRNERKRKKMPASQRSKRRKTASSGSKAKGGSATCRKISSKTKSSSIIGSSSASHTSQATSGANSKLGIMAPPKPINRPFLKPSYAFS
Assay: qHTS Assay for Inhibitors of Bloom's syndrome helicase (BLM); further: nearly all actives have a fitted effect of over 35% in size;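 on activity change, negative = inhibition: plate controls were vehicle for no effect and no enzyme for full effect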
Settings: recombinant BLM DNA unwinding, fluorescence dequenching; series mostly up to 56.1 µM; activity change, negative = inhibition: at the top concentration
Excerpt: Survival of cells and the faithful propagation of the genome depend on elaborate mechanisms of detecting and repairing DNA damage. Treatment of advanced cancer relies on radiation therapy or chemotherapy, which kill cancer cells by causing extensive DNA damage. It is often found, that cancer cells develop resistance to therapy through enhanced activity of DNA repair functions; this has led to an increased interest in developing drugs that interfere with DNA repair, which could sensitize cancer cells to conventional therapy.
This validation qHTS assay pertains to human BLM, which is important in resolving abnormal DNA structures formed during replication or homologous recombination. Shutting down the expression of BLM leads to chromosomal instability and higher radiation sensitivity in cultured cells.
The validation assay was a fluorescence quenching based kinetic qHTS for BLM Helicase DNA unwinding. The activity was measured as ATP-dependent separation of a 20-bp DNA duplex extended by 30-nt single-stranded tails (forked duplex). The forked DNA substrate was tagged with rhodamine fluorophore (carboxytetramethyl rhodamine, TAMRA) and BHQ-2 (Black Hole Quencher 2) dark quencher. Strand separation results in an increase in the fluorescence of TAMRA (excitation 525 nm, emission 598 nm). This substrate construct operates in a red-shifted region where very few compound library members have been noted to fluoresce (PubChem AIDs 593 and 594). An additional feature of the assay is the inclusion of 2.5 ug/ml poly (dIdC), to reduce interference by compounds such as DNA intercalators, a major source of false inhibitors.
Ian Hickson, University of Oxford
Opher Gileadi, Structural Genomics Consortium, University of Oxford
Screening Center PI: Austin, C.P.
Screening Center: NIH Chemical Genomics Center [NCGC]
Three uL of reaction buffer (25 mM Tris-HCl (pH 8.0), 5 mM NaCl, 2 mM MgCl2, 1mM DTT, 0.01% Tween- 20, and 2.5 ug/ml poly(dI-dC), including enzyme (50 nM BLM), were dispensed into a 1536-well Greiner black assay plate via solenoid-valve based nanoliter dispensers. Compounds (23 nl each in columns 5-48) and control (23 nl each in column 2 as dose-response) were transferred via a Kalypsys pintool equipped with a 1536-pin array. The plates were incubated for 15 min at room temperature, and then 1 ul of substrates (200 nM DNA and 2 mM ATP, final concentrations) was added to start the reaction. The plate was transferred into a ViewLux high-throughput CCD imager where the reaction progress was measured in a discontinuous kinetic mode (two reads spaced 2 hours apart, with intermediate room temperature incubation of the covered assay plate) by using standard red-fluorescence optics (excitation filter 525 nm, emission filter 598 nm). Enzyme-free and vehicle (DMSO) controls were included for signal normalization.
Potency means the concentration at half of the fitted maximal effect.

Structure (SMILES)	Potency	activity change, negative = inhibition
CC(N)C(O)c1ccc(O)c(O)c1 (configuration not stated)	inactive	–
C[N+]1(C)[C@@H]2CC(OC(=O)[C@@H](CO)c3ccccc3)C[C@@H]1[C@H]1O[C@H]12 (some centres not stated)	–	inactive: -1.08%
C=C(C)C1Cc2c(ccc3c2OC2COc4cc(OC)c(OC)cc4C2C3=O)O1 (configuration not stated)	–	inactive: -13.3%
CN1C[C@H](C(=O)N[C@@]2(C)O[C@@]3(O)C4CCCN4C(=O)C(Cc4ccccc4)N3C2=O)C[C@H]2c3cccc4[nH]cc(c34)C[C@H]21 (some centres not stated)	–	inactive: -1.4%
Brc1c(NC2=NCCN2)ccc2nccnc12	inactive	–
CC(C)N(CC[C@@](C(N)=O)(c1ccccc1)c1ccccn1)C(C)C	–	inactive: 2.55% [at 21.4 µM]
CNCCC(Oc1ccc(C(F)(F)F)cc1)c1ccccc1 (configuration not stated)	inactive	–
CC(=O)c1c(O)c(C)c(O)c(Cc2c(O)c3c(c(C(=O)/C=C/c4ccccc4)c2O)OC(C)(C)C=C3)c1O	–	inactive: -12.9%
NN=C(N)N	inactive	–
CC[C@H]1CN2CCc3cc(OC)c(OC)cc3[C@H]2C[C@@H]1C[C@@H]1NCCc2cc(OC)c(OC)cc21	–	inactive: -6.36%
C[C@]12CCC(=O)C=C1CC[C@@H]1[C@@H]2CC[C@]2(C)C(=O)CC[C@@H]12	inactive	–
Cc1ccccc1N1C(=O)/C(=C/c2ccco2)C(=O)NC1=S	active: 0.891 µM	–
O=C1NCN(c2ccccc2)C12CCN(C[C@H]1COc3ccccc3O1)CC2	–	inactive: -4.03%
C=CCN1CC[C@@]2(C)c3cc(O)ccc3CC1[C@@H]2C	–	inactive: 5.39%
CCCC[N+]1(C)C2CC(OC(=O)C(CO)c3ccccc3)CC1C1OC12 (configuration not stated)	inactive	–
Oc1ccc(Cl)cc1Cc1cc(Cl)ccc1O	inactive	–
C/C(O)=C(\C#N)C(=O)Nc1cc(Br)ccc1Br	–	inactive: -6.81%
C[C@H]1COC2=C1C(=O)C(=O)c1c2ccc2c1CCCC2(C)C	inactive	–
O=c1cc(-c2ccc(O)c(O)c2)oc2cc(O)cc(O)c12	inactive and active: 35.5 µM	–
COc1ccc(OC)c(C(O)C(C)N)c1 (configuration not stated)	inactive	–
O=C(OCC1O[C@@H](OC(=O)c2cc(O)c(O)c(O)c2)[C@@H](OC(=O)c2cc(O)c(O)c(O)c2)[C@@H](OC(=O)c2cc(O)c(O)c(O)c2)[C@@H]1OC(=O)c1cc(O)c(O)c(O)c1)c1cc(O)c(O)c(O)c1 (some centres not stated)	active: 0.501 µM	–
N#CC(C#N)=NNc1ccc(OC(F)(F)F)cc1	–	inactive: -20.2%
CN1CCN(C2=Nc3cc(Cl)ccc3Nc3ccccc32)CC1	inactive	–
CC[C@@H]1CN2CCc3cc(OC)c(OC)cc3[C@H]2C[C@@H]1C[C@H]1NCCc2cc(OC)c(OC)cc21	–	inactive: 1.72% [at 21.4 µM]

Structure (SMILES)	Potency	activity change, negative = inhibition
CN1CC(CNC(=O)OCc2ccccc2)CC2c3cccc4c3c(cn4C)CC21 (configuration not stated)	–	inactive: -0.885%
Cc1c(C(=O)c2cccc3ccccc23)c2cccc3c2n1[C@@H](CN1CCOCC1)CO3	–	inactive: -11.1%
CC(=O)O[C@H]1C(=O)[C@@]2(C)C([C@H](OC(=O)c3ccccc3)[C@]3(O)C[C@H](OC(=O)[C@H](O)[C@@H](NC(=O)c4ccccc4)c4ccccc4)C(C)=C1C3(C)C)[C@]1(OC(C)=O)CO[C@@H]1C[C@@H]2OC(=O)[C@H](C)NC(=O)c1ccc(-c2c3ccc(=O)cc-3oc3cc(O)ccc23)c(C(=O)O)c1 (some centres not stated)	active: 3.16 µM	–
N[C@@H](CCCP(=O)(O)O)C(=O)O	–	inactive: -4.34%
CNc1ccc2oc(C[C@H]3O[C@@]4(CC[C@H]3C)O[C@H]([C@H](C)C(=O)c3ccc[nH]3)[C@H](C)C[C@H]4C)nc2c1C(=O)O	–	inactive: -27.5%
COc1ccc2c(c[n+](C)c3c4cc5c(cc4ccc23)OCO5)c1OC	inactive	–
O=C(Nc1ccc(Oc2ccc(Cl)cc2)c(Cl)c1)c1cc(I)cc(I)c1O	–	inactive: -29%
NC(N)=NOCCC(N)C(=O)O (configuration not stated)	–	inactive: 5.64%
CN1CCC[C@@H]1c1cccnc1	–	inactive: -11.2%
C[C@]12CC[C@@H]3c4ccc(OC(=O)N(CCCl)CCCl)cc4CC[C@H]3[C@@H]1CC[C@@H]2O	active: 14.1 µM	–
COc1ccc2c3c([nH]c2c1)C(C)=NCC3	inactive	–
CCCN1CCC[C@@H]2Cc3[nH]ncc3C[C@H]21	inactive	–
C[C@@H](N)Cc1cnc[nH]1	–	inactive: -2.39%
O=C1NC(=S)N(c2ccccc2)C(=O)/C1=C/c1ccco1	active: 22.4 µM	–
CCCN1CCO[C@@H]2c3cc(O)ccc3OC[C@@H]21	–	inactive: 6.68%
CCC1CN2CCc3cc(OC)c(OC)cc3C2CC1CC1NCCc2cc(OC)c(OC)cc21 (configuration not stated)	–	inactive: -4.37%
CC[C@@H](CO)NC(=O)[C@H]1C=C2c3cccc4c3c(cn4C)C[C@H]2N(C)C1	–	inactive: -2.69%
C[N+]1(C)CCN(c2ccccc2)CC1	–	inactive: -5.56%
NCCc1ccc(O)cc1	inactive	–
NC[C@@H](CC(=O)O)c1ccc(Cl)cc1	inactive	–
C=C(C)[C@H]1Cc2c(ccc3c2O[C@@H]2COc4cc(OC)c(OC)cc4[C@@H]2C3=O)O1	inactive	–
COC(=O)C1=CCCN(C)C1	inactive	–
CC(C)[C@@]1(NC(=O)[C@H]2CC3c4cccc5[nH]cc(c45)C[C@H]3N(C)C2)O[C@@]2(O)C3CCCN3C(=O)[C@@H](Cc3ccccc3)N2C1=O (some centres not stated)	–	inactive: -4.04%
